# Test results as given in publication PMC12136788.
# This is one part of the list.
# T1: UNK ZnF1-3 (human, UniProt Q9C0B0 31-174)
# T1 sequence: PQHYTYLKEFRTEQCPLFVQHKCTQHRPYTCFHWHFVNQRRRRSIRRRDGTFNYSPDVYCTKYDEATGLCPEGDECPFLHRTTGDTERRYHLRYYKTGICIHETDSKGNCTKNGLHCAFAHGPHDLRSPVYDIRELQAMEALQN
# B1: chr3:120123814:120123815:-_ENSG00000163430_ENST00000295633|hu_mus|FALSE|FALSE (ssRNA)
# RNA: GGGAGUUCUACAGUCCGACGAUCCUGCUCCACGAAUUUCAGGAAUUCACUGGAGUCCAGGUGAGAGUCGCCAUUAUCAAAGCUCUUAAAGUACUUGUCUAGGAUCUCACUGUAGUUACUGCCUUUAGAGAACCAGCCAUCUGGCAACAGAGGAUUGAGCAUCA
# B2: chr11:46405157:46405158:+_ENSG00000110492_ENST00000395566|hu_hu|hu_hu_hu_mus_False|1_8 (ssRNA)
# RNA: GGGAGUUCUACAGUCCGACGAUCCCCUCCCCACUUUGGGCACUUGGUGUGGGCGUGAGAGGACAGGCGUGAUUGACAGAGCUGACAGGAAGACAAAAGGCACUGGUGGGUUAUAUCUUGGGCCUGUGAGAGGGAGGGCGUGGGCAACAGAGGAUUGAGCAUCA
# B3: chr16:45143845:45143846:-_ENSMUSG00000022664_ENSMUST00000023344|mus_hu|FALSE|FALSE (ssRNA)
# RNA: GGGAGUUCUACAGUCCGACGAUCCACUUAGAUCUCGGAUCCUUUCUUGCCUAGGUGCGUAUUCCGGAACUUGAGGCUUGCUGGCAUUAUAAAUAAAUAUAGAGAGAAGGACUGAUGGGGCUUCCAAGAAAAAUUCCAGGGAGGCAACAGAGGAUUGAGCAUCA
# B4: chr16:32019706:32019707:-_ENSMUSG00000022781_ENSMUST00000023467|mus_mus|motif|central (ssRNA)
# RNA: GGGAGUUCUACAGUCCGACGAUCCCCUUUCAGUUUAGGCUCUGAACUGAAACACUCCGCACACCAGCCGGUCCUGACUUCGGUAGGAAGCUAAGCAUGUCAAGCUCCUUUCCCAAUGUAAAGAGCUACAUCAAUCAUUUUAUCCAACAGAGGAUUGAGCAUCA
# B5: chr17:57724784:57724785:+_ENSG00000141367_ENST00000269122|hu_hu|FALSE|FALSE (ssRNA)
# RNA: GGGAGUUCUACAGUCCGACGAUCUUUCAUUUCAAUGUUAAAAAUCUGAAGAGUUUUCCCAGCUUUCAGUGCAAUUACUUUGCUAGCUGGAUUCAUGAUGGCGCUGUCUGCUGAAAUUGGUCUUCGAAUUGGAUUACUUGGGUCCAACAGAGGAUUGAGCAUCA
# B6: chr3:176740097:176740098:-_ENSG00000177565_ENST00000430069|hu_mus|hu_hu_hu_mus_True|48_68 (ssRNA)
# RNA: GGGAGUUCUACAGUCCGACGAUCUGUUUUGUAUACCACAAAAGGAGGCACUUUCAGUAUCUGCAAAAGGUAUUUAAUCCUAAAACAUACUUACCUAGAGGAUAACUCAGGAAAACAAUCUGUUACACUCUAAGACCUACUCCACAACAGAGGAUUGAGCAUCA
# B7: chr11:44378942:44378943:+_ENSMUSG00000019189_ENSMUST00000019333|mus_hu|FALSE|FALSE (ssRNA)
# RNA: GGGAGUUCUACAGUCCGACGAUCUUUAAAUUUAUUAAGACAUUCAGCUAUGUCUGUCAGUCUACAUCCAAAUUUGCUACUAAAAAUAAAAUAAAGUCACAUCCCACAUUAGGAAUACCGAGGUCUGAAAAACACUUUUUGAGCCAACAGAGGAUUGAGCAUCA
# B8: 88249743_88250314_1579_CDS_ENSMUSG00000026234_ENSMUST00000027438|mouse|control|control (ssRNA)
# RNA: GGGAGUUCUACAGUCCGACGAUCUUUCUCUCCAGUAUAGUAGAGUGAAACAGAUCGUCCAUCAAUUUCUGCCCCCUGCUUUUCUUCCAAAUUUUUCUCUGCAUCAGCUUCAGACUUAAAUUCAAUAUAAGCAAUCCCUUUACUCAACAGAGGAUUGAGCAUCA
# B9: 11681258_11681378_101_3pUTR_ENSG00000189067_ENST00000571688|human|control|control (ssRNA)
# RNA: GGGAGUUCUACAGUCCGACGAUCCUCUACAGACGCGUCCGGACAGACCAAGACACUCUCUGUGCCUUCGGGCAUGUUACCCAUCCUCUCUGAGCUCGGCUUCCUGUCUGCAAAAUGGGCACAAUAGCGGUCCUGUCUCCUAAGCAACAGAGGAUUGAGCAUCA
# B10: chr5:95128998:95128999:+_ENSG00000164292_ENST00000379982|hu_hu|FALSE|FALSE (ssRNA)
# RNA: GGGAGUUCUACAGUCCGACGAUCCUUUUAAGACCACAGUGGUAGUUUUUUUCCAAAGAGAACUAAUAAACAUAUUAAGCUAUAUGGUAAUUUUUCUAACACCCACAUUGGUUUCGGUCAGAAGAAUUUUACUGGAACCUGGAGCAACAGAGGAUUGAGCAUCA
# B11: chr10:33190432:33190433:-_ENSG00000150093_ENST00000302278|hu_hu|motif|central (ssRNA)
# RNA: GGGAGUUCUACAGUCCGACGAUCUACAUUUUCAAAACCUGCACAUGAGUAAAACCAUGGCAAUAUUGCCCUAAAGCGGCCGGACUGUGACUAUGGAAAUUGCUACUUUGCAUUCAGUGUUGUGGGAUUUGCACGGGCAGUACUCAACAGAGGAUUGAGCAUCA
# B12: chr13:3555642:3555643:+_ENSMUSG00000021218_ENSMUST00000059515|mus_mus|FALSE|FALSE (ssRNA)
# RNA: GGGAGUUCUACAGUCCGACGAUCAUCAAACUUCUUAUACACAUCUCUCAUGGAGGUCUUCUUAGGAUCAACACCCUCGAAAGUUCUAGGAUCUUUUUCAUCAAAGUUGGCAACAUAAACCAGGAACUUCCUGAAACGGCGUUUCAACAGAGGAUUGAGCAUCA
# B13: 59477578_59483500_149_3pUTR_ENSG00000137575_ENST00000447182|human|control|control (ssRNA)
# RNA: GGGAGUUCUACAGUCCGACGAUCAAGCUUCUGACAAAAUUGCUGGAUUGGCAGGGUUUGCAGAAAAAGCAGUUUGAGCCUGAAUUACUUUGUCUACCUUCAAGUCUUCGAGAGAUGGAUAGAGAGACAUUUUUGCAGGAUUCUCAACAGAGGAUUGAGCAUCA
# B14: chr2:42509997:42509998:+_ENSG00000143924_ENST00000318522|hu_mus|hu_hu_hu_mus_True|28_108 (ssRNA)
# RNA: GGGAGUUCUACAGUCCGACGAUCUCGCUGAGUUCUCUCCUCAUAAUUAAACAGGACUACCACUGAGGCGAUAAAAUAAACUAUCUCCCCUGUGGGAAGCAGGUAUACAUUAGCUCUACAGUCCUUUCCUCGAUAACCGUAUACCAACAGAGGAUUGAGCAUCA
# B15: 183603010_183603130_2061_3pUTR_ENSG00000218336_ENST00000511685|human|control|control (ssRNA)
# RNA: GGGAGUUCUACAGUCCGACGAUCCGUGCAGGAGCCACUUUCUUGAAGAUACGUUCCGUGGCCGGAGCACUGGUCUGGACACAUGGUCUUCAGUAUUUCACAAUUGCUACCUCCCCAUCCUGGACUGCAGUGACAUUCCCCGUGCAACAGAGGAUUGAGCAUCA
# B16: chr5:124080617:124080618:-_ENSMUSG00000049550_ENSMUST00000063905|mus_hu|motif|central (ssRNA)
# RNA: GGGAGUUCUACAGUCCGACGAUCUUCCAUCUCUUUAGCAUGGGCAGCCCGUUCAGAGUCUUGUUGAUUCUGCAAAUUUUCGGUUUCGUGUUGGUAAUCUAGUCUCAUUUUCUCUAUUUGUGUUUUUAGUUCAGCAAAUUCUGCCAACAGAGGAUUGAGCAUCA
# B17: 179016624_179018721_998_CDS_ENSG00000176783_ENST00000393438|human|control|control (ssRNA)
# RNA: GGGAGUUCUACAGUCCGACGAUCUUUUAGCUGCUUCCACACAUCACUGUACAUUUCAUCCAGACCUUGCCGAGUUUGCUUGUAAGUCUCCAGCUCAACUUUGGUAUCCUGUUUUGUUAUCUCUACACUCUUUUCACUUCUUUCCAACAGAGGAUUGAGCAUCA
# B18: chr2:48026839:48026840:+_ENSG00000116062_ENST00000540021|hu_hu|hu_hu_hu_mus_False|68_98 (ssRNA)
# RNA: GGGAGUUCUACAGUCCGACGAUCAUAGUGAGCCACUAGAGUCCUAAAUCUGGAACAGUGGCGGUCAUCUGAAAACUGGCCGAUGAAAAACUUGCCCAGUGAAGUGUCCACAAAGCAAACACCAUACACACGAGUGUGACCAGACAACAGAGGAUUGAGCAUCA
# B19: chr2:216983849:216983850:+_ENSG00000079246_ENST00000392132|hu_mus|FALSE|FALSE (ssRNA)
# RNA: GGGAGUUCUACAGUCCGACGAUCCUUGUCGAUUGGAAAAGGCAAAAAGAACUGCAGAGAGAUGCCAGACUUCUUCAAGUUACAAAUUAUAACGUCCAGUUGGUCCUGGCUGAACGGGCUGCUGAGGUCAGUGAACACUUCAAUCAACAGAGGAUUGAGCAUCA
# B20: chr2:73037555:73037556:-_ENSMUSG00000027108_ENSMUST00000028517|mus_mus|FALSE|FALSE (ssRNA)
# RNA: GGGAGUUCUACAGUCCGACGAUCAAAGGCAUUCCCCAAGCCCUGCCCAUUGUGAGCUCCUUUUACAAGGCCAGCAAUAUCCACUACAUUUAGGAAAGCAGGAAUCUUGCUUGCUGGUUUAUGGUACUGGCAAAGAAAGUCGAACAACAGAGGAUUGAGCAUCA
# B21: chr3:122261000:122261001:-_ENSMUSG00000039735_ENSMUST00000162409|mus_mus|motif|central (ssRNA)
# RNA: GGGAGUUCUACAGUCCGACGAUCGUAAUCUUCAAAUGGAAAGUCUCCUGGAGGUUCAAAGCCAGACUUGAAGGAGUCGGCGGCCAUUUGAGAAUCUCUUCUUUCAUCAACUGAUUUUGCUGCAAGAAUCAUUCCUUCUAAACACAACAGAGGAUUGAGCAUCA
# B22: chr10:33214929:33214930:-_ENSG00000150093_ENST00000302278|hu_hu|hu_hu_hu_mus_True|98_98 (ssRNA)
# RNA: GGGAGUUCUACAGUCCGACGAUCAACAAGUUCAUUGAAUACUUCUCCUCUGUCAGUAAGACUAAGCACAUUUUUGUAGCUAAAUGGGCUGGUGCAGUUUUGUUCACUUGUACAAGGAUUUCUUAGCUUUGCUGGGGUUGUGCUCAACAGAGGAUUGAGCAUCA
# Biological target: T1, UNK ZnF1-3
# Assay: nsRBNS (natural sequence RNA bind-n-seq); RBNS binding buffer (assumed for nsRBNS): 25 mM Tris pH 7.5, 150 mM KCl, 3 mM MgCl2, 0.01% Triton X-100, 500 ug/ml BSA, 20 U/ml SUPERase-In, 4 C; UNK is unkempt and MSI1 is Musashi-1; names of the RNAs are library labels; protein concentration not given here; high values mean tight binding
row,Binder,binding signal
1,B1,0.935 enrichment R
2,B2,1.91 enrichment R
3,B3,2.36 enrichment R
4,B4,1.01 enrichment R
5,B5,0.693 enrichment R
6,B6,0.812 enrichment R
7,B7,1.79 enrichment R
8,B8,1.11 enrichment R
9,B9,0.588 enrichment R
10,B10,0.925 enrichment R
11,B11,1.05 enrichment R
12,B12,0.696 enrichment R
13,B13,1.09 enrichment R
14,B14,0.884 enrichment R
15,B15,0.639 enrichment R
16,B16,0.386 enrichment R
17,B17,0.361 enrichment R
18,B18,1.03 enrichment R
19,B19,1.37 enrichment R
20,B20,1.16 enrichment R
21,B21,0.719 enrichment R
22,B22,0.708 enrichment R
